# PubChem BioAssay AID1347073 (National Center for Advancing Translational Sciences (NCATS), 2019)
# About 200 (0.44%) of roughly 45,000 compounds were called active. Inconclusive results (about 7%) are left out. Calls come from the whole dose curve; as a rule, active = well fitted activation curve with a large enough effect; inconclusive = small, poorly fitted or top-dose-only effect; inactive = no such curve, though single readings can be large or run the other way. The list shows a part of the results.
# Experiment: qHTS of TDP-43 Inhibitors: NCGC Sytravon Library Screen; note: 0% is about no effect; nearly all actives have a fitted effect of over 55% in size
# Conditions: yeast TDP-43 toxicity rescue, BacTiter-Glo growth, 24 h; series mostly up to 46.1 µM; growth rescue (activation): at the top concentration
# Procedure, shortened: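 TDP-43-expressing yeast, pregrown in raffinose, seeded at OD600 0.02 in galactose medium with compound for 24 hr at 30 deg C. Growth read by BacTiter-Glo luminescence, so rescue of toxicity appears as activation.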
row,Structure (SMILES),growth rescue (activation)
1,COc1ccc(C(=O)/C=C/c2ccc(OC)c(COc3ccccc3F)c2)cc1,inactive: 2.97%
2,CC1(C(=O)NS(=O)(=O)C2CC2)CCCN(C(=O)c2cccnc2Oc2ccccc2)C1 (stereo unspecified),inactive: 6.37%
3,COC(=O)c1ccc(/C=C2\N=C(SC)SC2=O)cc1,inactive: 1.42%
4,NC(=O)c1ccc(NC(=O)COC(=O)c2ccc3c(c2)OCCO3)cc1,inactive: 6.82%
5,COc1cc(OC)cc(C(=O)NCC2CCCN(C(=O)c3csc(C(C)C)n3)C2)c1 (stereo unspecified),inactive: 8.38%
6,COc1ccc(CC(=O)N/N=C(\C)CC(=O)Nc2cccc(F)c2)cc1,inactive: -1.73%
7,O=C(CNS(=O)(=O)/C=C/c1ccccc1)OC1CCOC1=O (stereo unspecified),inactive: -4.47%
8,COc1ccc(N(CC(=O)NC2CCCCC2)C(=O)c2snc(C(N)=O)c2N)cc1,inactive: 7.01%
9,CCC1Oc2ccccc2N(CC(=O)NC2CCCCC2)C1=O (stereo unspecified),inactive: -16.5%
10,Cc1ccc(C)c(Nc2c([N+](=O)[O-])c(=O)oc3ccccc23)c1,inactive: 12.1%
11,CN(C)c1oc(/C=C/c2ccc(F)cc2)nc1C#N,inactive: 22.7%
12,O=C(CNC(=O)c1ccccc1)N=Nc1c(O)[nH]c2ccc(Br)cc12,inactive: -22.3%
13,Cc1ccc(SCC(=O)N2N=CCC2c2ccccc2)cc1 (stereo unspecified),inactive: -4.17%
14,CCOC(=O)NC(=O)CSc1ccc2ccccc2n1,inactive: 33%
15,O=C(CC(=O)N/N=C/c1cccs1)NCc1ccccc1,inactive: 9.74%
16,COc1ccc(C(=O)NC(=S)N2CCN(c3ccc([N+](=O)[O-])cc3)CC2)cc1,inactive: 22.7%
17,Cc1ccc(C(=O)Nc2nc(C)c(C(=O)Nc3ccc4c(c3)CCC4)s2)cc1,inactive: 9.02%
18,O=C(/C=C/c1ccccc1)Nc1ccc(C(=O)N2CCCCC2)cc1,inactive: 5.86%
19,COc1ccc(S(N)(=O)=O)cc1C(=O)NC1CCCc2ccccc21 (stereo unspecified),inactive: -1.44%
20,COc1cccc(/C=N/NC(=O)c2cc3c(OC)cccc3[nH]2)c1O,inactive: 1.8%
21,COc1ccc(C2=NN(c3ccc(C=O)cc3)C(c3ccccc3)C2)cc1 (stereo unspecified),inactive: 19.2%
22,COC(=O)c1cc(C(=O)NCC2CCCCC2)cc([N+](=O)[O-])c1,inactive: 29%

row,Structure (SMILES),growth rescue (activation)
1,COc1ccc(NC(C)C(=O)N/N=C/c2ccccc2OCc2cccc(Br)c2)cc1 (stereo unspecified),inactive: 14%
2,CC1(C(=O)O)CCCN(C(=O)/C=C/c2ccccc2)C1 (stereo unspecified),inactive: 5.21%
3,O=C(COC(=O)c1ccccc1NC(=O)c1ccccc1)c1ccc([N+](=O)[O-])cc1,inactive: 5.66%
4,CC(C)(C)C1CCC2(CC1)NC(CO)(CO)CO2 (stereo unspecified),inactive: 18.1%
5,CCOc1ncccc1C(=O)N(C)CC(=O)Nc1ccc(C)cc1,inactive: 2.57%
6,Cc1occc1C(=O)N(C)Cc1nc(-c2ccccc2)no1,inactive: 7.57%
7,CSc1ccccc1-c1cnc(NC(C)=O)cn1,inactive: 3.93%
8,CN1CCN(c2ncnc3c2ncn3[C@H]2CN(Cc3ccco3)C[C@@H](CO)O2)CC1,inactive: 2.45%
9,CCn1c2ccccc2c2cc(CN3CCN(S(=O)(=O)Cc4ccccc4)CC3)ccc21,inactive: 4.22%
10,COc1ccc(N2CCN(C(=O)C3CC(O)CN3S(=O)(=O)c3ccc([N+](=O)[O-])cc3)CC2)cc1 (stereo unspecified),inactive: -8.99%
11,COc1ccc(NC(=O)Nc2ccc(C(=O)N3CCOCC3)cc2)c(OC)c1,inactive: 8.26%
12,N#Cc1nc(COc2ccccc2)oc1N1CCCC1,inactive: 3.89%
13,COc1ccc(C/C(C)=N/NC(=S)Nc2ccc(C)c(C)c2)cc1,inactive: 14%
14,CCCCNC(=S)NC1CCCC1,inactive: -12%
15,O=C(NCc1ccccc1)c1cc(C2CCCCN2C(=O)c2cccs2)on1 (stereo unspecified),inactive: 3.7%
16,CC(O)(c1ccncc1)c1nc(-c2cccc(C(F)(F)F)c2)cs1 (stereo unspecified),inactive: 21.9%
17,C/C(=N\NC(=O)CSc1nc2ccccc2s1)c1ccco1,inactive: 1.44%
18,COc1ccc(CCC(=O)NC(C)C)cc1,inactive: -1.76%
19,COc1ccccc1NS(=O)(=O)c1cccc(C(=O)NNC(=O)c2ccc(Cl)nc2)c1,inactive: 0.502%
20,O=C1/C(=C/c2ccc(Br)cc2)Oc2cc(O)ccc21,inactive: 8.99%
21,N/C(=N\c1nc2c(c(=O)[nH]1)CCC2)Nc1ccccc1,inactive: -4.01%
22,Cc1cccc(-c2noc(CNC(=O)c3ccco3)n2)c1,inactive: 13.4%

row,Structure (SMILES),growth rescue (activation)
1,Brc1ccc(CNCCCSc2nnnn2-c2ccccc2)cc1,inactive: 14.9%
2,Cc1ccc(S(=O)(=O)N(C)c2c(C)ccc(S(=O)(=O)Nc3ccncc3)c2C)cc1,inactive: 8.83%
3,CCc1nc2ccc(C(=O)NCc3cccs3)cn2c1N(CC)CCN(C)C,inactive: 7.72%
4,CCc1ccc(NC(=O)C(=O)NCCN2CCN(Cc3ccc([N+](=O)[O-])cc3)CC2)cc1,inactive: 12.1%
5,COCC(C)NC(=O)C(C)Oc1ccccc1 (stereo unspecified),inactive: -10%
6,COc1ccc(NS(=O)(=O)c2cccc(C(=O)NNC(=O)c3cc(C)oc3C)c2)cc1,inactive: 19.6%
7,O=[N+]([O-])c1ccc(N/N=C\c2ccccc2OCc2ccccc2)cc1,inactive: 18.1%
8,CCOP(=O)(OCC)c1nc(-c2ccc(OC)cc2)oc1N1CCOCC1,inactive: 4.81%
9,COc1ccc(C(C)=O)cc1COC(=O)c1cccnc1Cl,inactive: 13.9%
10,CCn1c(CCC(=O)O)nc2cc(S(=O)(=O)N3CCOCC3)ccc21,inactive: 0.0283%
11,O=[N+]([O-])c1ccc(N=Nc2c(O)[nH]c3ccc(F)cc23)cc1,inactive: 19.7%
12,Cc1nnc(SCc2c(Cl)cccc2[N+](=O)[O-])s1,inactive: 1.57%
13,CN=C(NC)SC1CC(=O)N(c2ccccc2)C1=O (stereo unspecified),inactive: -1.75%
14,CCOC(=O)N1CCN(CC(=O)Nc2ccc(C)c(Br)c2)CC1,inactive: 21.8%
15,Cc1cc2oc(=O)cc(CN(C)Cc3ccc(OC(F)F)cc3)c2cc1Cl,inactive: 8.6%
16,N/C(=N\OC(=O)Cc1cccs1)c1ccc(Br)cc1,inactive: 6.79%
17,Nc1nonc1C(=O)N/N=C/c1cc2c(cc1[N+](=O)[O-])OCO2,inactive: -12.5%
18,COc1ccc2ccccc2c1/C=N/Nc1ccc(Cl)c(C(=O)O)c1,inactive: 13.5%
19,C=C(C)CN(CC)c1ccc(N2C(=O)CCCC2=O)cc1[N+](=O)[O-],inactive: 14.2%
20,CCc1ccc2c(c1)NC(=O)C2(C)Cc1ccc(C(F)(F)F)nc1 (stereo unspecified),inactive: 24.9%
21,CC(Sc1ccccc1)C(=O)NN=C1CCCC1 (stereo unspecified),inactive: 7.16%
22,O=C(C[n+]1ccc(C(=O)c2ccccc2)cc1)Nc1ccc(C(F)(F)F)cc1,inactive: -15.4%

row,Structure (SMILES),growth rescue (activation)
1,Cc1cc(NC(=O)CSc2nc(-c3ccco3)cc(C(F)(F)F)n2)no1,inactive: 1.69%
2,O=C(NCc1ccccn1)c1nc(Cn2cc([N+](=O)[O-])cn2)no1,inactive: 3.88%
3,CCCn1c(SC(C(=O)Nc2cc(C)ccc2OC)c2ccccc2)nc2ccccc2c1=O (stereo unspecified),inactive: 18.3%
4,COc1cccc(NC(=S)NCc2ccccn2)c1,inactive: 11.9%
5,O=C(Nc1nnc(Cc2ccccc2)s1)c1ccccc1,inactive: 7.15%
6,c1ccc(C2=Nn3c(nnc3-c3ccco3)SC2)cc1,inactive: 7.22%
7,Cc1ccc(NC(=O)Cn2cnc3cc([N+](=O)[O-])ccc3c2=O)cc1,inactive: -14%
8,CC1CCCC(NC(=O)COC(=O)[C@@H](NC(=O)c2ccc(F)cc2)C(C)C)C1C (stereo partly specified),inactive: 9.52%
9,Cc1cc(NC(=O)C2CC(=O)N(c3ccc(Cl)cc3)C2)no1 (stereo unspecified),inactive: -20.7%
10,Cc1cc(C)c(S(=O)(=O)NC2CC(C)(C)NC(C)(C)C2)cc1C,inactive: 2.83%
11,CC1C(=O)Nc2ccc(S(=O)(=O)Nc3ccccc3Br)cc2NC1=O (stereo unspecified),inactive: 6.01%
12,CCc1ccc(C(=O)/C=C/Nc2ccc(S(=O)(=O)Nc3onc(C)c3C)cc2)cc1,inactive: -23.8%
13,COc1ccc(CN2CCNC(=O)C2CC(=O)N(C)Cc2cc(C)no2)cc1OC (stereo unspecified),inactive: 8.67%
14,COc1ccc(C2CC(c3ccccc3)=NN2c2ccc(Cl)c(C(=O)O)c2)cc1 (stereo unspecified),inactive: -76.6%
15,CCC1CCC2(CC1)NC(=O)N(CC(=O)NCc1ccccc1Cl)C2=O (stereo unspecified),inactive: 8.21%
16,CCOc1ccc(-n2c(-c3ccccc3)nnc2-c2ccccc2)cc1,inactive: 7.92%
17,O=C(NN(c1ccccc1)c1ccccc1)c1ccc([N+](=O)[O-])o1,inactive: 9.49%
18,CC1CC(C)CN(C(=O)Cn2c(=O)n(CCCC(=O)NCc3ccco3)c(=O)c3sccc32)C1 (stereo unspecified),inactive: -11.4%
19,CNC(=O)c1ccc(-c2nc(-c3ccccc3)cs2)cc1,inactive: 17.2%
20,CCN(C(=O)CSc1nnc(-c2ccc(OC)cc2)n1C(C)C)C1CCS(=O)(=O)C1 (stereo unspecified),inactive: 12.9%
21,NC(=O)c1cccc(-c2coc3c(C(=O)NCc4ccccc4)cccc23)c1,inactive: 11.6%
22,COc1ccc(CCNC(=O)C2CC(=O)N(c3ccc(C)cc3)C2)cc1 (stereo unspecified),inactive: -0.881%

row,Structure (SMILES),growth rescue (activation)
1,CCOc1ccc(S(=O)(=O)N2CCN(S(=O)(=O)c3ccc(C(C)=O)cc3)CC2)cc1,inactive: 20.8%
2,Cc1cccc(NC(=O)C2CCN(S(=O)(=O)c3cccc4nonc34)CC2)c1,inactive: 7.43%
3,CCOc1ccc(-n2c([S-])c(C(=O)Nc3ccc(S(=O)(=O)N4CCOCC4)cc3)[n+]3cc(C(N)=O)ccc23)cc1,inactive: 9.27%
4,Cc1ccc(-n2cc(C(=O)O)c(=O)cc2C)c(C)c1,inactive: -4.17%
5,CCCSc1ncc(Cl)c(C(=O)Nc2sc3c(c2C(=O)NCC)CCCC3)n1,inactive: 2.81%
6,CSc1ncccc1C(=O)OCC(=O)Nc1cccc(S(=O)(=O)N2CCOCC2)c1,inactive: 9.53%
7,Cc1ccc(C)c(S(=O)(=O)N2CCCN(C)CC2)c1,inactive: -14.6%
8,Cc1ccc(-c2nnc(Nc3ccc(C(=O)N(C)C)cc3)c3ccccc23)cc1S(=O)(=O)NCC1CCCO1 (stereo unspecified),inactive: 4.75%
9,CC(=O)NC(NC(=S)Nc1cccc(Br)c1)C(Cl)(Cl)Cl (stereo unspecified),inactive: 32.6%
10,C=CCn1cc(/C=N/NC(=O)COc2cccc3cccnc23)c2ccccc21,inactive: 8.03%
11,Cc1cccc(NC(=O)C2CCCN2S(=O)(=O)c2ccc(Cl)cc2)n1 (stereo unspecified),inactive: 13.8%
12,O=c1[nH]c2ccc(S(=O)(=O)N3CCCC3)cc2[nH]1,inactive: -6.71%
13,CCc1nc2ccc(C(=O)N3CCN(C(=O)c4ccco4)CC3)cn2c1N(C=O)Cc1ccc(OC)cc1,inactive: -10.7%
14,O=C(NC1CCN(S(=O)(=O)c2ccc(F)cc2)CC1)c1cccnc1,inactive: 13.4%
15,COc1ccccc1NC(=O)c1cc(-c2cc(OC)c(OC)c(OC)c2)nc2ccccc12,inactive: 18.7%
16,O=C(COc1ccc(Br)cc1Cl)NC(=O)NCc1ccccc1,inactive: 6.56%
17,CCC1SC2=NC(C)=C(C(=O)OC)C(c3ccc(C)cc3)N2C1=O (stereo unspecified),inactive: -1.1%
18,CCOc1cc(N2CCOCC2)c(OCC)cc1NC(=O)COC(=O)[C@@H]1CCCN1S(=O)(=O)c1ccccc1F,inactive: 8.52%
